For 4 molecules, binding results are on record in article PMC6949220.

Protein sequences, listed by entry. Tags and fused reporters are not part of them. Residues count along the entry.
UniProt P40763: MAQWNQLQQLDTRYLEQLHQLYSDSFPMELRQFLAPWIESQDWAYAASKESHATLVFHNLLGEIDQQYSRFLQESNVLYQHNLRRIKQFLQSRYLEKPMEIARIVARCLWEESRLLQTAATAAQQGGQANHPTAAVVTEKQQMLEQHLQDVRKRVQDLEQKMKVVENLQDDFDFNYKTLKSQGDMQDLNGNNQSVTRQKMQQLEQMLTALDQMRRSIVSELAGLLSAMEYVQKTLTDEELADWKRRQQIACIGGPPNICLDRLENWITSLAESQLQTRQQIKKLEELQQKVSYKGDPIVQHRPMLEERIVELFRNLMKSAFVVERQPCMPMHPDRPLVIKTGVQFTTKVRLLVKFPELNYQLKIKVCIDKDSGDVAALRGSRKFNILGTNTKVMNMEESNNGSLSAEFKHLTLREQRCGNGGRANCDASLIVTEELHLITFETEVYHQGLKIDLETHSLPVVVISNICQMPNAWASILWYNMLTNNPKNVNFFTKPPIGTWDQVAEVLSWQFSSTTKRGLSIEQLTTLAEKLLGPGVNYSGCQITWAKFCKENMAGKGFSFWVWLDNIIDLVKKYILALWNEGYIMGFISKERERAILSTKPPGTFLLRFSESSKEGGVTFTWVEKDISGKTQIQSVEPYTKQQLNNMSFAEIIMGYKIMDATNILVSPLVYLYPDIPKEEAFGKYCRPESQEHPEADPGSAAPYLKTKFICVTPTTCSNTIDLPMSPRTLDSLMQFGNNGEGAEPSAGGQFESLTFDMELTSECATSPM
UniProt P28827, residues 21-1452: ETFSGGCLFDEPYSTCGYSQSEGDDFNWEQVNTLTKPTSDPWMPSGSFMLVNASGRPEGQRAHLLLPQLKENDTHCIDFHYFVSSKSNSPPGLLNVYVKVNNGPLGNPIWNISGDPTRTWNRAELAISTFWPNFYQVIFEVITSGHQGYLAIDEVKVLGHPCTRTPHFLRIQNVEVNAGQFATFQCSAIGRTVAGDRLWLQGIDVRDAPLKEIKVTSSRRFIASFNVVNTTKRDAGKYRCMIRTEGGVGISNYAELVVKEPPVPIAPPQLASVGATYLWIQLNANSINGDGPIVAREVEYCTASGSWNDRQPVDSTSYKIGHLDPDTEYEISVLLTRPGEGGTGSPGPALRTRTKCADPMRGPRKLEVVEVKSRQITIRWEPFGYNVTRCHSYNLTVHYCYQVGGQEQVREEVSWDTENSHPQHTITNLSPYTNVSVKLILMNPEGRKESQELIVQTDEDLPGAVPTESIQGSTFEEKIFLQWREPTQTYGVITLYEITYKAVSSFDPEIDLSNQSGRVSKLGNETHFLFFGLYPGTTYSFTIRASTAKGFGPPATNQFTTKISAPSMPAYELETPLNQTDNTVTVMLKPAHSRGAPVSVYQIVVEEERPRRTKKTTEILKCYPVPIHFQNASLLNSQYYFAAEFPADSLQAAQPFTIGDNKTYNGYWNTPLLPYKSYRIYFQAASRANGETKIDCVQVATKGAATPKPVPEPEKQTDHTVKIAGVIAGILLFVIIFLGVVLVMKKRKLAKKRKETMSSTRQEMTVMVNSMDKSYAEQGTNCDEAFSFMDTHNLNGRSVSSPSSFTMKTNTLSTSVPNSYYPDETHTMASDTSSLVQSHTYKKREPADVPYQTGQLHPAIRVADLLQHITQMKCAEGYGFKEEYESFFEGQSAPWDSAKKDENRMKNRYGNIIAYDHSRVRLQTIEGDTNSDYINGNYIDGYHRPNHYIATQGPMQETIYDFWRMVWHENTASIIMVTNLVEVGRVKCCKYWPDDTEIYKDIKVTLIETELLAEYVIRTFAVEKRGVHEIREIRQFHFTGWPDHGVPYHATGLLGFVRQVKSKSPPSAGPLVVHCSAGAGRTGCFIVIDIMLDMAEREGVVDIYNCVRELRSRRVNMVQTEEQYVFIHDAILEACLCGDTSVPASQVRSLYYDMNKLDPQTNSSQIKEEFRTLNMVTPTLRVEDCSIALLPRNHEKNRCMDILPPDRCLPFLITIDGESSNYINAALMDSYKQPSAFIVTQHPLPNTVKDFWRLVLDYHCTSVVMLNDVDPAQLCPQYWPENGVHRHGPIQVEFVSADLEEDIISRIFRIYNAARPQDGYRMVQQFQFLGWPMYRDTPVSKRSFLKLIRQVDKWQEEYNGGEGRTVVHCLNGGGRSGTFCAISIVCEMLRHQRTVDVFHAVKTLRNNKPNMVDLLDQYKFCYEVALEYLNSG

Experiment [1] deals with HA-STAT3 wild type (signal transducer and activator of transcription 3) (UniProt P40763). In words: co-IP; tagged proteins co-transfected (HEK293T where stated); lysates precipitated with anti-HA, anti-Flag or anti-Myc, immunoblot. (In general: In western blotting, separated proteins are transferred to a membrane and probed.)
The target is the same in experiment [2]. In words: co-IP; HEK293T co-transfected with FLAG-DDIAS and/or Myc-PTPRM and HA-STAT3; precipitated with anti-HA antibody.
In experiment [3] the target is endogenous STAT3 (human (endogenous in NCI-H1703)) (UniProt P40763). In words: co-IP; endogenous proteins; lysates incubated with anti-STAT3 or anti-DDIAS antibody; cells treated with IL-6 (PTPRM/STAT3, also after DDIAS knock-down); NCI-H1703 for DDIAS/STAT3.
Experiment [4] addresses HA-STAT3 wild type (signal transducer and activator of transcription 3) (UniProt P40763). In words: co-IP; tagged proteins co-transfected (HEK293T where stated); lysates precipitated with anti-HA, anti-Flag or anti-Myc, immunoblot. The source holds these as a separate data set.
Experiment [5] concerns the target Myc-DDK-tagged PTPRM (protein tyrosine phosphatase receptor mu) (UniProt P28827). The experiment is described as above.
For experiment [6], the target named is endogenous STAT3 (human (endogenous in NCI-H1703)) (UniProt P40763). Put plainly: co-IP; endogenous proteins; lysates incubated with anti-STAT3 or anti-DDIAS antibody; cells treated with IL-6 (PTPRM/STAT3, also after DDIAS knock-down); NCI-H1703 for DDIAS/STAT3. The source holds these as a separate data set.

Read-outs that look alike come from different tables or passages of the source. Results are given in words; binding and its absence hold for the method and conditions named. Binding seen in cells or lysates may run through a third protein. Some results given as binding are weak or reduced against the parent protein; the word gives no strength. For part of these data: Where a sequence is shown, tags or fusion partners need not be part of it.

As to “Myc-DDK-tagged PTPRM (protein tyrosine phosphatase receptor mu) (from UniProt P28827 21-1452)”, the binding result in experiment [1] and in experiment [2] was “binds” throughout.

Regarding “endogenous PTPRM (from UniProt P28827 21-1452) (receptor)”, the binding result in experiment [3] was “binds”.

B1: Flag-DDIAS (DNA damage-induced apoptosis suppressor) (protein, UniProt Q8IXT1 1-998)
chain: MNRRRKFLLASVLALQNSSFIYPSCQKCFSRIILVSKRSNCPKCGSTGESGNANYRYKLSLKVAESNKLFVITVFGSCLDTFFGLTATGLHRYIQDPNKIPETLDNDTTQNLLTKAVETCFVGQSFIFGVTNFENQPGQGSDASNFLQQCSDHKRKAKALVACQIVLPDPGIAGFTVIDYFHQLLQTFNFRKLQCDSQAPNNHLLALDHSNSDLSSIYTSDSTSDFFKSCSKDTFSKFWQPSLEFTCIVSQLTDNDDFSASEQSKAFGTLQQNRKSISIAEATGSSSCHDPIQDSWSLVSYMDKKSTAEKLGKELGLQAKELSAVHSSHHEIGVNDSNLFSLEMREPLESSNTKSFHSAVEIKNRSQHELPCFQHHGIDTPTSLQKRSACCPPSLLRLEETASSSQDGDPQIWDDLPFSESLNKFLAVLESEIAVTQADVSSRKHHVDNDIDKFHADHSRLSVTPQRTTGALHTPPIALRSSQVIVKANCSKDDFLFNCKGNLSPSVEKESQPDNKVEAVSVNHNGRDMSEYFLPNPYLSALSSSSKDLETIVTLKKTIRISPHRESDHSSLNNKYLNGCGEISVSEMNEKLTTLCYRKYNDVSDLCKLENKQYCRWSKNQDDSFTICRKLTYPLETLCNSPNRSTNTLKEMPWGHINNNVTQSYSIGYEGSYDASADLFDDIAKEMDIATEITKKSQDILLKWGTSLAESHPSESDFSLRSLSEDFIQPSQKLSLQSLSDSRHSRTCSPTPHFQSDSEYNFENSQDFVPCSQSTPISGFHQTRIHGINRAFKKPVFYSDLDGNYEKIRIFPENDKQQASPSCPKNIKTPSQKIRSPIVSGVSQPDVFNHYPFAECHETDSDEWVPPTTQKIFPSDMLGFQGIGLGKCLAAYHFPDQQELPRKKLKHIRQGTNKGLIKKKLKNMLAAVVTKKKTHKYNCKSSGWISKCPDIQVLAAPQLHPILGPDSCSEVKCCLPFSEKGPPSVCETRSAWSPELFS
For B1, the binding result in experiment [4] is on record as “binds”; in experiment [5] it was “no binding”.

B2: endogenous DDIAS (protein, UniProt Q8IXT1 1-998)
chain: B1 chain
Take B2: the binding result in experiment [6] is listed as “binds”.
